Reference: PubChem BioAssay AID624296 (National Center for Advancing Translational Sciences (NCATS), 2012)
The campaign covered roughly 350,000 compounds. About 9,900 (2.8%) were called active. Inconclusive results, whose numbers are uncertain, are shown with a selection of clear calls. Calls follow the shape of the dose curve; as a rule, active = well fitted activation curve with a large enough effect; inconclusive = small, poorly fitted or top-dose-only effect; inactive = no such curve, though single readings can be large or run the other way. No potency is given beside an inconclusive call; the fits are too rough.

assay: A quantitative high throughput screen for small molecules that induce DNA re-replication in MCF 10a normal breast cells.; also: nearly all actives have a fitted effect of over 50% in size; as to activity, positive = re-replication: % of control where 0% means no effect; conditions: MCF 10A DNA re-replication, Hoechst nuclear intensity, 48 h; activity, positive = re-replication: at 46.1 µM (top of the series)
Potency is read from the fitted curve at half-maximal effect; tags tell the direction and shape of the fitted curve.

With `COc1nccnc1NS(=O)(=O)c1ccc(NC(=O)c2cccc(C)c2)cc1` as the molecule, how does the “activity, positive = re-replication” value read?
The value was inactive: 11.8%.

For `O=C(Cc1c(F)cccc1Cl)NNC(=O)c1ccncc1`, which Potency is on record?
Its Potency is inconclusive [activator, single point].

For `CS/C(N)=N/N=C/c1c(O)ccc2ccccc12`, which Potency is on record?
The Potency was inconclusive [activator, partial curve, poor fit].

Which “activity, positive = re-replication” value does the source give for `CC1CC(C)CN(C(=O)COC(=O)c2ccc3ncsc3c2)C1` (stereo unspecified) here?
The value was inactive: 1.27%.

Which Potency does the source give for `O=C(CCl)NC(Cc1ccccc1)c1ccccc1` (stereo unspecified) here?
The Potency was inconclusive [activator, single point].

For `COc1ccc2c(c1)CCC(C)N2C(=O)C(=O)c1c[nH]c2ccccc12` (stereo unspecified), which Potency is on record?
The Potency was inconclusive [activator, single point].

For `CCCCCN(C(=O)CCC(=O)OCc1ccccc1C(F)(F)F)c1c(N)n(CCCC)c(=O)[nH]c1=O`, which “activity, positive = re-replication” value is on record?
The value was inactive: -5.04%.

With `COC(=O)N/N=C/c1ccc([N+](=O)[O-])o1` as the molecule, how does the activity, positive = re-replication read?
Its activity, positive = re-replication is inactive: 318% [at 0.0737 µM].

With `NC(=O)COc1cccc2cccnc12` as the molecule, how does the “activity, positive = re-replication” value read?
The value was inactive: 16.6%.

Which “activity, positive = re-replication” value does the source give for `COc1ccc(Cc2nn3c(-c4ccccc4OC)nnc3s2)cc1` here?
The value was inactive: -2.41%.

For `C/C(=N/Nc1ccc(C(=O)c2c(C)cc3ccccn23)cc1[N+](=O)[O-])c1ccc(O)cc1`, which “activity, positive = re-replication” value is on record?
Its value is inactive: -1.41%.

Which “activity, positive = re-replication” value does the source give for `Nc1nonc1C(=O)NCCNCc1ccccc1` here?
The value was inactive: -6.08%.

Which Potency does the source give for `COc1ccc(CCNC(=O)c2sc(=S)n(C)c2N)cc1` here?
Its Potency is inconclusive [activator, single point].

Which “activity, positive = re-replication” value does the source give for `CC1(C)CC(NC(=O)C2CCN(S(=O)(=O)c3ccc(Cl)c(C(F)(F)F)c3)CC2)CC(C)(C)N1` here?
The value was inactive: 3.99%.

With `CCCN(CCC)C(=O)Cc1ccc(F)cc1` as the molecule, how does the “activity, positive = re-replication” value read?
The value was inactive: -8.15%.

With `Clc1cccc(Cl)c1/C=C/c1nc2ccccc2[nH]1` as the molecule, how does the “activity, positive = re-replication” value read?
Its value is inactive: 28.7%.

Which Potency does the source give for `COc1cccc(C2CC3(CC(C)(C)NC(=S)N3)Oc3cc(O)ccc32)c1` (stereo unspecified) here?
Its Potency is inconclusive [activator, single point].

For `CCOc1ccc(OCc2ccc(C(=O)N/N=C(\C)c3ccccn3)cc2)cc1`, which Potency is on record?
Its Potency is inconclusive [activator, single point].

With `CCCCNc1c(-c2ccc(SC3CCCCC3)c(OC)c2)nc2ccc(Cl)cn12` as the molecule, how does the Potency read?
Its Potency is inconclusive [activator, single point].

For `COc1ccc(N(C(=O)CNC(=O)c2cccs2)C(C(=O)NCC2CCCO2)c2ccc(OC)c(OC)c2)cc1` (stereo unspecified), which Potency is on record?
The Potency was inconclusive [activator, single point].

With `CCOC(=O)c1sc2nc(C)c3c(c2c1N)CC(C)(C)OC3` as the molecule, how does the “activity, positive = re-replication” value read?
Its value is inactive: 22.4%.

Which “activity, positive = re-replication” value does the source give for `COc1cc(/C=N/NC(=O)NC23CC4CC(CC(C4)C2)C3)ccc1OCC(N)=O` here?
The value was inactive: 9.63%.

For `COC(=O)c1ccc(C(=O)N(Cc2ccccc2)c2ccccc2)cc1`, which Potency is on record?
Its Potency is inconclusive [activator, single point].

For `CC(=O)Nc1ccc(-c2nnc(SCC(=O)c3ccc4c(c3)Cc3ccccc3-4)n2C)cc1`, which Potency is on record?
Its Potency is inconclusive [activator, single point].

With `CSc1ccc(NC(=O)NCCCN2CCC(Cc3ccccc3)CC2)cc1` as the molecule, how does the Potency read?
The Potency was inconclusive [activator, partial curve].

For `CSCC(=O)Nc1ccc(F)c(Cl)c1`, which “activity, positive = re-replication” value is on record?
The value was inactive: 0.191%.

With `COc1ccc(C(=O)COc2ccc(F)cc2)c(O)c1` as the molecule, how does the “activity, positive = re-replication” value read?
Its value is inactive: -8.49%.

For `O=C1/C(=C/c2ccc(O)cc2)COc2ccccc21`, which Potency is on record?
The Potency was inconclusive [activator, single point].

For `CN1C(c2ccc(F)cc2)=CS/C1=C(/C#N)c1nnc2n1-c1ccccc1SC2`, which “activity, positive = re-replication” value is on record?
The value was inactive: 14.1%.

Which Potency does the source give for `Cc1c(-c2ncn[nH]2)sc(C#N)c1-c1ccccc1` here?
The Potency was inconclusive [activator, single point].

For `O=C(NNC(=O)c1ccc(Cl)s1)c1csc(N2CCOCC2)n1`, which Potency is on record?
Its Potency is inconclusive [activator, single point].

Which Potency does the source give for `CC(C)c1ccc(S(=O)(=O)c2n[nH]n3c2nc(=O)c2ccccc23)cc1` here?
Its Potency is inconclusive [activator, single point].

For `O=C(N/N=C/c1ccc(-c2ccc(Cl)c(C(=O)O)c2)o1)c1cc2c(ccc3ccccc32)o1`, which Potency is on record?
The Potency was active: 20.6 µM.

With `Cc1cc(N2CCCCCC2)nc2ccccc12` as the molecule, how does the Potency read?
The Potency was inconclusive [activator, single point].

For `O=C1ON=C(c2ccccc2)/C1=C\c1ccco1`, which “activity, positive = re-replication” value is on record?
The value was inactive: 1.15%.

With `CSc1ccccc1NC(=O)c1cc(-c2cccs2)on1` as the molecule, how does the Potency read?
Its Potency is inconclusive [activator, partial curve, poor fit].

With `Cc1cc(C)n(CC(=O)c2cccc(N)c2)n1` as the molecule, how does the Potency read?
Its Potency is inconclusive [activator, partial curve, poor fit].

Which Potency does the source give for `Cc1cccc(Sc2ccc([N+](=O)[O-])cc2[N+](=O)[O-])n1` here?
Its Potency is inconclusive [activator, single point].

Which Potency does the source give for `Cc1ccccc1C1NC(=S)NC2=C1C(=O)CCC2` (stereo unspecified) here?
The Potency was inconclusive [activator, single point].

Which Potency does the source give for `COc1ccccc1C(=O)N/N=C(\C)CC(=O)Nc1ccc(Cl)cn1` here?
Its Potency is inconclusive [activator, single point].

Which Potency does the source give for `Cc1cc(Nc2ccc(Br)cc2)nc2ccccc12` here?
The Potency was inconclusive [activator, single point].

Which Potency does the source give for `COC(=O)c1ccc(-c2sc3nc(N4CCOCC4)c4c(c3c2N)CCCC4)o1` here?
The Potency was inconclusive [activator, full curve, poor fit].

Which Potency does the source give for `CCOC(=O)CCC(NC(=O)CCCCC(=O)NC(CCC(=O)OCC)C(=O)OCC)C(=O)OCC` (stereo unspecified) here?
Its Potency is inconclusive [activator, full curve, poor fit].

For `CCOC(=O)N1CCN(C(=O)c2ccc3c(=O)n(CC4CCCO4)c(=S)[nH]c3c2)CC1` (stereo unspecified), which Potency is on record?
The Potency was inconclusive [activator, partial curve, poor fit].

With `COCCCN=C1NN=C(c2cc(C)n(-c3ccccc3)c2C)CS1` as the molecule, how does the Potency read?
The Potency was inconclusive [activator, single point].

For `Cc1csc(NC(=O)c2ccc3nc[nH]c3c2)n1`, which “activity, positive = re-replication” value is on record?
The value was inactive: -28.5%.

Which “activity, positive = re-replication” value does the source give for `N/C(=N\OC(=O)c1ccc(Cl)cc1)c1ccccn1` here?
Its value is inactive: 1.45%.

With `O=C(CSc1nc(-c2ccccc2)cc(C(F)(F)F)n1)NCc1ccco1` as the molecule, how does the Potency read?
The Potency was inconclusive [activator, partial curve, poor fit].

With `Cc1ccc(NC(=O)Cn2c(O)c(N=NS(=O)(=O)c3ccc(C)cc3)c3ccccc32)cc1` as the molecule, how does the Potency read?
Its Potency is active: 20.6 µM.

Which Potency does the source give for `COc1ccccc1-c1ccc(SCc2ccccc2)nn1` here?
The Potency was inconclusive [activator, partial curve, poor fit].

For `CCn1c2ccccc2c2cc(NC(=O)CSc3nnc(C4CC4)n3Cc3ccco3)ccc21`, which Potency is on record?
The Potency was inconclusive [activator, single point].

With `CN1CCN(c2ccccc2NC(=O)c2sc3ccccc3c2Cl)CC1` as the molecule, how does the Potency read?
Its Potency is inconclusive [activator, single point].

For `COC(=O)Cc1c(C(=O)OC)nnn1-c1cccc(C(F)(F)F)c1`, which Potency is on record?
Its Potency is inconclusive [activator, single point].

With `CC(C)C(=O)NC(c1cccc([N+](=O)[O-])c1)c1ccc2cccnc2c1O` (stereo unspecified) as the molecule, how does the Potency read?
The Potency was inconclusive [activator, partial curve, poor fit].

Which Potency does the source give for `O=C(Nc1ccc(Cl)cn1)c1cccc(F)c1` here?
The Potency was active: 13 µM.

With `Cc1ccc2nc(-c3ccncc3)cc(C(=O)Nc3ccncc3)c2c1` as the molecule, how does the Potency read?
The Potency was inconclusive [activator, single point].

With `O=[N+]([O-])c1cccc(S(=O)(=O)N2CCN(S(=O)(=O)N3CCCCCC3)CC2)c1` as the molecule, how does the Potency read?
The Potency was inconclusive [activator, single point].

Which Potency does the source give for `OCc1cccc(Nc2ncnc3sc4c(c23)CCCCC4)c1` here?
Its Potency is inconclusive [activator, partial curve].

For `CCc1nnc(NC(=O)c2ccc(S(=O)(=O)N(CC)CC)cc2)s1`, which “activity, positive = re-replication” value is on record?
Its value is inactive: 25.4%.

Which Potency does the source give for `Cc1ccccc1Cn1c(=O)n(C)c(=O)c2sccc21` here?
The Potency was inconclusive [activator, partial curve, poor fit].

For `CCOC(=O)C1=C(C)N(c2ccccc2)C(=O)/C1=C\c1ccc(O)c(OC)c1`, which Potency is on record?
Its Potency is inconclusive [activator, single point].

For `Oc1ccc(Cc2ncc(C(F)(F)F)cc2Cl)cc1`, which Potency is on record?
Its Potency is inconclusive [activator, full curve, poor fit].

Which “activity, positive = re-replication” value does the source give for `O=C(c1ccc(-c2ccccc2)c(F)c1)C1CCCN(C(=O)c2cncs2)C1` (stereo unspecified) here?
Its value is inactive: 1.76%.

For `CCOCc1c(C(=O)NC2=Nc3ccccc3NC(CC)=C2C(=O)OCC)oc2ccccc12`, which Potency is on record?
Its Potency is active: 10.3 µM.

With `Cc1ccc2c(c1)COc1c3ccc(C(=O)O)cc3nn1-2` as the molecule, how does the Potency read?
The Potency was inconclusive [activator, single point].

With `Cc1oc(-c2cccs2)nc1CN1CCN(CC(C)C)C(CCO)C1` (stereo unspecified) as the molecule, how does the Potency read?
Its Potency is inconclusive [activator, full curve, poor fit].

With `COc1ccc(C(=O)/C=C/c2ccccc2OC)c(OC(=O)c2ccc([N+](=O)[O-])cc2)c1` as the molecule, how does the Potency read?
The Potency was inconclusive [activator, single point].

With `CC(C)(C)OC(=O)NCc1ccc(CNC(=O)c2[nH]cnc2C(=O)NCC(=O)OCc2ccccc2)cc1` as the molecule, how does the Potency read?
The Potency was inconclusive [activator, single point].

Which “activity, positive = re-replication” value does the source give for `NCCCCc1cn(CC(=O)N2CCNCC2)nn1` here?
The value was inactive: 14.5%.

With `OC(CNCCc1ccccc1)COc1ccc(OCC(O)CNCCc2ccccc2)cc1` (stereo unspecified) as the molecule, how does the Potency read?
The Potency was inconclusive [activator, partial curve, poor fit].

For `CC(C)NC(=O)C1CCN(C(=O)c2cc3sccc3n2Cc2ccc(F)cc2)CC1`, which “activity, positive = re-replication” value is on record?
The value was inactive: -8.62%.
